In PubChem BioAssay (NCI):
“And” between values parts separate entries of the source, which are not always exact repeats. Equal entries are not always repeated.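 Five compound concentrations were applied to cells in 96-well plates for 48 hours; endpoints were derived by simple linear interpolation of the resulting dose-response curve. GI50: concentration for 50% inhibition of growth. TGI: total growth inhibition.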 Square brackets hold non-standard residues; d marks the D form. Peptide text beside a SMILES is read from it. Orn = NCCC[CH](N)C(=O)O

test system: NCI-H322M lung; test: inhibition of tumour cell growth, NCI panel, 48 h

SMILES | TGI | GI50
C=C1CCC2C(C)(CO)C(O)CCC2(C)C1CC(O)C1=CCOC1=O (stereo not drawn) | > 100 µM | –
C=C1C(=O)O[C@H]2[C@H]3O[C@@H](C[C@@H]12)[C@](C)(O)CCCC(C)=CCC[C@H]3C | 50.4 µM | –
COc1ccc(C2S/C(=C\c3cccc([N+](=O)[O-])c3)C(=O)N2NC(=O)Cc2ccccc2)cc1 (stereo not drawn) | > 100 µM | –
COc1ccc(OC)c(/C=C/c2cnnc3ccccc23)c1 | > 10 µM | –
O=C1/C(=C/c2cccc([N+](=O)[O-])c2)N=C(c2ccccc2)N1c1ccc2c(c1)Sc1cc(N3C(=O)/C(=C/c4cccc([N+](=O)[O-])c4)N=C3c3ccccc3)ccc1N2 | 36.2 µM | –
c1ccc(-c2cc(-c3cc(-c4ccccc4)no3)on2)cc1 | > 100 µM | –
COC(=O)CCC(=O)C(C#N)c1ccc(Cl)cc1Cl (stereo not drawn) | > 100 µM | –
CC(C)(C)OC(=O)N1C(=O)OC[C@@H]2C=C[C@@H]21 | > 100 µM | –
CC1(c2nc3cc(Cl)c(Cl)cc3[nH]2)CCC(C(=O)O)C(C)(C)O1 (stereo not drawn) | > 100 µM | –
COc1ccc2cc(C(=O)/C=C/c3ccccc3OC)ccc2c1 | 22 µM | 3.64 µM
O=C(NO)c1ccc(OCc2ccccc2)cc1 | > 100 µM | –
CC(=O)OCC(OC(C)=O)C(OC(C)=O)C(OC(C)=O)C(/C=N\Nc1nc2ccccc2c(=O)[nH]1)OC(C)=O (stereo not drawn) | > 100 µM | –
Oc1ccc2c3c1OC1c4[nH]c5c(c4CC4(O)C(C2)N(CC2CC2)CC[C@]314)CC1(O)C2Cc3ccc(O)c4c3[C@@]1(CCN2CC1CC1)C5O4 (stereo partly drawn) | > 100 µM | –
Nc1nn(C(=O)Nc2ccc(Cc3ccccc3)cc2)c2ccccc12 | > 100 µM | 27.8 µM
NS(=O)(=O)c1ccc(NCc2cnc3ccccc3c2)cc1 | > 100 µM | –
Cc1c(C)c2ccc(O)cc2[nH]c1=O | > 100 µM | –
CC(C)(C)C1=NN=C2c3ccccc3C(=O)C21 (stereo not drawn) | > 100 µM | –
CN(C)C1COC2Cc3ccccc3C1O2 (stereo not drawn) | > 100 µM | –
N#CC(C#N)=Cc1ccc(-c2ccc(-c3nc4ccccc4s3)cc2)s1 | 62.4 µM | 22.8 µM
CN(C)CCOc1cccc(NC2=C(Cl)C(=O)C(Nc3cccc(OCCN(C)C)c3)=C(Cl)C2=O)c1 | 13.3 µM | 3.41 µM
COC(=O)c1cc(O)ccc1NC(=O)c1ccc(O)cc1 | > 100 µM | –
Clc1ccc(CCn2cncn2)c(Cl)c1 | > 100 µM | –
COc1ccc(/C=C2\CCCC3=C2N=C2SC=NN2C3c2ccc(OC)c(OC)c2)cc1OC (stereo not drawn) | > 100 µM | 83.2 µM

SMILES | TGI | GI50
Cc1ccc2nc(Cl)c(/C=N/N3C(=O)/C(=C/Cc4ccco4)N=C3c3ccccc3)cc2c1 | > 100 µM | –
COc1cc(C2c3cc4c(cc3OC(O)C2C)OCO4)cc(OC)c1O (stereo not drawn) | > 100 µM | –
Cn1c(=O)c2c(nc3sc4ncccc4c(=O)n32)n(C)c1=O | > 100 µM | –
CC(C)(Cc1ccccc1)Cc1cc(O)ccc1O | > 100 µM | –
CCNCCNc1cc(C2CCCC2)c(C#N)c2nc3ccccc3n12 | 15 µM | 3.2 µM
Cc1ccc(S(=O)(=O)N2C/C(=C\c3cc(F)cc(F)c3)C(=O)/C(=C/c3cc(F)cc(F)c3)C2)cc1 | 12.2 µM | 3.28 µM
CO[C@H]1C[C@H](O[C@H]2CC[C@]3(C=O)[C@H]4CC[C@]5(C)[C@@H](C6=CC(=O)OC6)CC[C@]5(O)[C@@H]4CC[C@]3(O)C2)O[C@H](C)[C@H]1O[C@@H]1O[C@H](CO[C@@H]2O[C@H](CO)[C@@H](O)[C@H](O)[C@H]2O)[C@@H](O)[C@H](O)[C@H]1O | 0.189 µM | –
COc1cc2c3c(n(CCCN4CCOCC4)c(=O)c2cc1OC)-c1cc2c(cc1C3=O)OCO2 | > 94.1 µM | 19.8 µM
O=[N+]([O-])c1ccc(C2N3CCCCC3[C@@H]3c4[nH]c5ccccc5c4CCN23)cc1 (stereo partly drawn) | 67.6 µM | –
COc1ccc2c(c1)N(CCC1CCCCN1C)c1ccccc1S2 (stereo not drawn) | 28.1 µM | –
CC(C)=CCC/C(C)=C/CC/C(C)=C/CC/C(C=O)=C/CC/C(C)=C\CC/C(C)=C/CC/C(C)=C/CC/C(C)=C/CC1=CC(=O)C=CC1=O | > 100 µM | –
O=CNc1ccc2c(c1)Cc1cc([N+](=O)[O-])ccc1-2 | > 100 µM | 1.91 µM
COC(=O)/C(Br)=C/c1c[nH]c2ccc(Br)cc12 | 39.9 µM | 17.5 µM
Cc1ccc(S(=O)(=O)N/N=C2/CC[C@H](C(C)(C)C)C[C@@H]2C)cc1 | 34.9 µM | –
Cc1ccccc1Nc1cn(CCOc2ccccc2)c(=O)n(CCOc2ccccc2)c1=O | > 100 µM | –
Cc1cccc(C(O)c2ccccn2)c1O (stereo not drawn) | > 100 µM | –
O=c1[nH]c(C2CCCCC2)nc2cc(Cl)ccc12 | > 100 µM | –
CC(C)CC1NC(=O)C(CCCN)NC(=O)C(C(C)C)NC(=O)C2CCCN2C(=O)C(Cc2ccccc2)NC(=O)C(CC(C)C)NC(=O)C(CCCN)NC(=O)C(C(C)C)NC(=O)C2CCCN2C(=O)C(Cc2ccccc2)NC1=O (stereo not drawn) (cyclo(FPV[Orn]LFPV[Orn]L); configuration not given here) | 0.487 µM and 1.29 µM | 0.0134 µM and 0.0483 µM
OCCCNC(=S)Nc1ccc(-c2nc3ccccc3s2)cc1 | > 100 µM | 24.9 µM
CC(=O)OCC1OC(OC2CC3C(C)(C)C(=O)CC[C@]3(C)C3CC[C@]45C[C@]4(CCC5[C@@H](C)CC(O)C(O)C(C)(C)O)[C@]23C)C(O)C(O)C1O (stereo partly drawn) | 29.7 µM | –
CCCNNC(=O)c1ccc(CNC(=O)/C=C/c2ccccc2)cc1 | 3.75 µM | 0.212 µM
Cc1ccc(C(=O)Nc2ccc(CP(=O)(O)O)cc2)cc1NC(=O)Nc1cc(C(=O)Nc2ccc(CP(=O)(O)O)cc2)ccc1C | > 100 µM | –
